Data from PMC4336329 (PLoS ONE, 2015).
Hit rate of the full screen: of about 310,000 compounds, about 14,000 (4.5%) showed an effect of 50% or more. Effects have a minus sign here. This is one part of the list.

What follows are molecules tested against human ether-à-go-go-related gene (hERG) potassium channel (human, UniProt Q12809) (assay: primary screen, population patch clamp on CHO cells stably expressing hERG).
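Further: peak tail current of the secondary pulse compared with the same well before compound.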

human ether-à-go-go-related gene (hERG) potassium channel, sequence (Q12809 whole entry, looked up): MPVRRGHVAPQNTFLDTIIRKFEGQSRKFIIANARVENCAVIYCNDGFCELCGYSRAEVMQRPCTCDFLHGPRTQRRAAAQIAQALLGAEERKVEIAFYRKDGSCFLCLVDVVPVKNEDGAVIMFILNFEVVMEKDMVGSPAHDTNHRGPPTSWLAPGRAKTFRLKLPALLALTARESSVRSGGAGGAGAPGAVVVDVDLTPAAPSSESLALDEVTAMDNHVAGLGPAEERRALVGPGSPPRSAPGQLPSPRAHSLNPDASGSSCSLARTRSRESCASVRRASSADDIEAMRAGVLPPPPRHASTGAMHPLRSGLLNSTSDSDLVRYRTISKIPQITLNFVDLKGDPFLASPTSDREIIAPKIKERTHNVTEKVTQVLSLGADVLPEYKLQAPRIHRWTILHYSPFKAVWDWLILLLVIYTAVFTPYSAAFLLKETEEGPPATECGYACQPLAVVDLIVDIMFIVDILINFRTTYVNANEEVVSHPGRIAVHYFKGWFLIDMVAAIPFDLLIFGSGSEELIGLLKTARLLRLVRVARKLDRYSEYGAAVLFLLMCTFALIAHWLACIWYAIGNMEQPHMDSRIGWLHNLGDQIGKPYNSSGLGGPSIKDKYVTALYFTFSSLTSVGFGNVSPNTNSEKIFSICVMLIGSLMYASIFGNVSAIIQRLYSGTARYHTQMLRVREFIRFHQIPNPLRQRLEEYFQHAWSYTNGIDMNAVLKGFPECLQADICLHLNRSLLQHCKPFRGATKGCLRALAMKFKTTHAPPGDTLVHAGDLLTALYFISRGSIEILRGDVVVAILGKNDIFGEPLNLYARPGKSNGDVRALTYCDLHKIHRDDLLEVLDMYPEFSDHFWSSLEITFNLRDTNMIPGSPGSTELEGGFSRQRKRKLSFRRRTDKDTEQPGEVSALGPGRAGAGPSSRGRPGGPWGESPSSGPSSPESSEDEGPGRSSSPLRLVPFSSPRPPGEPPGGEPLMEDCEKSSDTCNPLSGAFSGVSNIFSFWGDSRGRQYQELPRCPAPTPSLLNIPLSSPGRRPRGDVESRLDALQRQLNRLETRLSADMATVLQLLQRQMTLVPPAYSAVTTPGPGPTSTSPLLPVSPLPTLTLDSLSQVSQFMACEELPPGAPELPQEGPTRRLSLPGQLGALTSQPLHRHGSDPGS

SMILES	hERG current change (%, negative = inhibition) at 10uM [%]
COc1ccc(C2C(C#N)=C(N)Oc3n[nH]c(C)c32)cc1CSc1ccccn1 (centres unmarked)	-23.8
COc1ccc(/C=C2/SC(=S)NC2=O)cc1OCc1ccccc1	7.64
CCCCN(C)CCNC(=O)C1CCN(S(=O)(=O)c2cccc3nsnc23)CC1	-15.3
CCOC(=O)C1=C(N)OC2=C(C(=O)CCC2)C12C(=O)N(C)c1ccccc12 (centres unmarked)	8.11
CCOC(=O)C1CCN(C(=O)c2cc3cc(Br)ccc3oc2=O)CC1	-11
Cc1cc(C(=O)N/N=C/c2cc(Cl)cc([N+](=O)[O-])c2O)n[nH]1	-13.7
Cc1nc2ccccc2n1C1CCN(CC(=O)Nc2ccccc2Br)CC1	-25
C/C=C/c1cc(CN2CCN(c3ccccc3)CC2)c(O)c(OC)c1	-32
CCOC(=O)C1=C(O)/C(=C/c2ccc(OCC(=O)O)c(OC)c2)SC1=Nc1ccc(OC)cc1	-41.5
O=C(NC1CCCC1)C1CC(O)CN1C(=O)Nc1ccccc1 (centres unmarked)	5.02
CCOC(=O)c1cc2c(=O)n3ccccc3nc2n(CCOC)c1=NC(=O)c1c(-c2c(F)cccc2Cl)noc1C	2
CCOC(=O)C1=C(C)NC(=O)NC1c1cccc(O)c1 (centres unmarked)	23.5
CN(C(=O)COC(=O)c1ccc2[nH]c3c(c2c1)CCCC3)C1CCS(=O)(=O)C1 (centres unmarked)	-11.1
Cn1c2ccccc2c2nnc(SCC(=O)NC3CCCC3)nc21	2.81
O=C(c1noc2c1CCCC2)N1CCCC(N2CCN(c3ccccc3F)CC2)C1 (centres unmarked)	-28
O=C(Nc1ccc(OC(F)(F)F)cc1)N1CCN(c2ccnc3cc(Cl)ccc23)CC1	-72.1
CC(C)(C)[C@H]1C=C(C(=O)N2CCN(Cc3ccccc3)CC2)O[C@@H](OCCCCO)C1	-22.2
CCN(CC)CC(O)CN(c1ccccc1)S(=O)(=O)c1ccc2ccccc2c1.Cl (centres unmarked)	-80.2
COc1ccc(CCNC(=O)C(=O)NCC2OCCN2S(=O)(=O)c2cccs2)cc1OC (centres unmarked)	-16.5
O=C1NN(c2ccccc2)C(=O)C2C1C1C=CC2C12CC2 (centres unmarked)	-1.38
CCC(=O)Nc1ccc(S(=O)(=O)NCc2ccco2)cc1	-3.34
O=c1c2cc(Br)ccc2[nH]c(=S)n1Cc1cccnc1	6.8
COc1ccc(CN2CCN(C(=O)c3ccc4nc(N5CCOCC5)sc4c3)CC2)c(OC)c1OC	-5.71

SMILES	hERG current change (%, negative = inhibition) at 10uM [%]
COc1ccc(Cc2nc(-c3cccc(C)c3)no2)cc1	-9.01
CCC(Sc1nc2sc(C(=O)OC)c(C)c2c(=O)n1N)C(=O)NCC1CCCO1 (centres unmarked)	-28.4
COC(=O)COc1ccc(S(=O)(=O)Nc2ccccc2C(=O)OC)cc1	1.81
CC(C)(C)c1ccc(C(CC(=O)O)NC(=O)Cc2ccc(Cl)cc2)cc1 (centres unmarked)	20.6
O=C(COC(=O)COc1ccccc1F)NCCc1ccc(F)cc1	8.05
O=C(COC(=O)C1=COCCO1)Nc1ccccc1	26.1
O=C(COc1ccccc1[N+](=O)[O-])Nc1cccc(Cl)c1N1CCOCC1	-30
CCOCCCNc1ccc(-c2ccccc2)nn1	-1.64
CCCCOc1ccc(-c2cc(C(=O)NNC(=S)NCC)c3ccccc3n2)cc1	7.75
N#CCO/N=C(\c1ccccc1)c1ccncc1	18.1
O=C(O)/C(=C\c1ccc(Br)cc1)c1ccc(S(=O)(=O)N2CCCCC2)s1	9.39
CCOc1ccc(C(=O)NCc2ccncc2)cc1	15.6
Cc1ccc(S(=O)(=O)C2(C(=O)Nc3ccc(F)cc3)CC2)cc1	-14.8
C/C(N)=C(/C#N)C(=O)COC(=O)c1ccccc1C(=O)c1ccc(C)cc1	-12
COc1cccc(OC)c1OCC(O)CN1CCN(c2ccccc2)CC1.Cl (centres unmarked)	-33.3
CCC(NC(=O)c1cc(COc2cncc(Cl)c2)on1)c1ccncc1 (centres unmarked)	8.75
CCCC(=O)Nc1cccc(-c2nc3ccccc3o2)c1	2.05
CCC(=O)c1cn(Cc2ccccc2)c2ccccc12	-7.05
C=CCn1c(NC(=O)c2ccco2)nc2ccccc21	5.56
CC(=O)N1N=C(c2ccc(C)o2)CC1c1cccc(F)c1 (centres unmarked)	18.1
Cc1cnc(NC(=O)C(C)N2CCN(C)CC2)s1.O=C(O)C(=O)O (centres unmarked)	20.7
COc1ccccc1NC(=O)CN1CCN(C2c3ccccc3-c3ccccc32)CC1	2.41
O=C(Nc1ccccc1F)c1cccc(C(=O)Nc2ccccc2F)c1	1.08

SMILES	hERG current change (%, negative = inhibition) at 10uM [%]
O=C(N/C(=C/c1ccco1)C(=O)N1CCCCC1)c1cccs1	-17.4
Cc1cccc(OCC(=O)Nc2ccc3c(C)cc(=O)oc3c2)c1	1.59
C=CCn1c(SCC(=O)Nc2ccc(F)cc2F)nc2c([nH]c3ccccc32)c1=O	-3.79
CN(C(=O)COC(=O)CNC(=O)C1CCCCC1)c1ccccc1	-1.31
C=CCSc1nc2c(c(-c3ccsc3)c1C#N)CN(C)CC2	-65.2
Cc1csc(=O)n1CCC(=O)OCC(=O)N(CC(C)C)c1c(N)n(Cc2ccccc2)c(=O)[nH]c1=O	0.214
CCN(CC(=O)Nc1c(F)cccc1F)C(=O)CCc1nc2cc(S(=O)(=O)N3CCOCC3)ccc2n1C	14.1
CC/C(=N\NC(N)=O)c1c(O)[nH]c(=O)[nH]c1=O	20.1
O=C(Cn1cnc2c(cnn2-c2ccccc2)c1=O)N1CCCc2ccccc21	-25.1
CCc1ccc(OCC(=O)NNC(=S)NC(=O)C2CC2)c(Br)c1	7.59
Brc1ccc(CNCc2cccs2)cc1	-55.1
CN(Cc1ccccc1)c1nc(N)c([N+](=O)[O-])c(NCc2ccccc2)n1	10
O=c1c(-c2ccnn2-c2ccc(F)cc2)cnc2n1CCS2	19.9
CC1CN(C(=S)SCC(=O)c2ccc([N+](=O)[O-])cc2)CC(C)O1 (centres unmarked)	-7.38
Cc1ccc(S(=O)(=O)N2CCC(C(=O)OCc3ccccc3)CC2)cc1C	5.96
CCOc1ccc(N(CC(=O)Nc2ccccc2OC)S(C)(=O)=O)cc1	-19.1
Fc1ccccc1NC(=S)N1CCC(c2ccccc2)C1 (centres unmarked)	13.8
CCn1c2ccccc2c2cc(NC(=O)COc3ccccc3)ccc21	5.64
CCc1nnc(NC(=O)CSc2nc(-c3ccccc3)nc3ccccc23)s1	16.3
O=C(NC(=S)N1CCN(Cc2ccccc2)CC1)c1cccnc1	14.2
CCC(=O)NCc1csc(-c2cccs2)n1	8.79
O=C(NCc1cccc(F)c1)C1CCN(S(=O)(=O)Cc2ccccc2)CC1	7.89
O=C(NC(=O)c1ccccc1Cl)Nc1ccc(-c2cnco2)cc1	14.4

SMILES	hERG current change (%, negative = inhibition) at 10uM [%]
COC(=O)Cn1c(=NC(=O)c2cc(OC)c(OC)c(OC)c2)sc2cc(OC)ccc21	1.18
Cc1ccc(-n2c3c(cc(C(=O)NCc4ccco4)c2=O)C(=O)CCC3)cc1	-53.8
CCc1ccc(C(=O)NCc2cnn(C)c2)s1	6.63
OC(c1ccccc1)C1CN(Cc2ccccc2)CCC1(O)c1ccccc1 (centres unmarked)	-21.1
CN1C(=O)c2ccc(C(=O)Nc3ccc(Br)cn3)cc2C1=O	7.17
COc1ccc(Cl)cc1NC(=O)CC1CCCC1	13.3
Cl.O=C(NCCCn1ccnc1)c1ccc(N2CCCCCC2)c([N+](=O)[O-])c1	-64
CN(C)C(=O)CSCc1c(Cl)cccc1Cl	-9.95
O=C(Cn1ncc2c3ccccc3n(Cc3ccc(Cl)cc3)c2c1=O)NCCCN1CCCC1=O	-34.5
CCCC(C)C(=O)N(Cc1ccccc1)c1ccccn1 (centres unmarked)	5.79
CC(C)(C)C(=O)O/N=C1\CCS(=O)(=O)c2sccc21	-0.401
COc1ccccc1CCC(=O)OCC(=O)Nc1ccc(C)c(S(=O)(=O)N2CCCCC2)c1	0.989
CCCCc1c(C)nc2cc(-c3ccco3)[nH]n2c1=O	-8.36
COC(=O)c1cc(Nc2cc(C)c3ccc(O)cc3n2)cc(C(=O)OC)c1	6.58
COc1ccc(/C=C2/SC(=O)N(CC(=O)Nc3cc(C)on3)C2=O)cc1OC	2.84
O=C1CC(NCc2ccncc2)C(=O)N1c1ccccc1 (centres unmarked)	4.07
Cc1ccc(C(=O)NCCNC(=O)c2ccco2)cc1C	26.9
COC(=O)c1ccc(CSc2nnnn2C)o1	23.2
O=C(Nc1nccs1)c1cc(-c2ccccc2)nc2ccccc12	8.65
Cn1c(=O)c(C(=O)c2ccccc2)nc2ccccc21	-14.2
